Assay results: the supplement of paper PMC10126150
Sequences with one replicate were seen in a single cluster, so their values are uncertain.

System: ATP
Test: switch fluorescence ratio, 500 uM ATP over buffer (Cy3 cluster intensity, sum of 5 cycles each) (fold (ratio)); higher = stronger signal-on switching upon ATP binding; sequences stand for … in TCGTCGGCAGCGTCAGATGTGTATAAGAGACAGTTTTTTTTTTTTTTTTTTTTTTTTT…TC
Conditions: aptamer strand: ATP DNA aptamer (quencher-CACCTGGGGGAGTATTGCGGAGGAAGG + anchor), 100 nM annealed; ATP concentration: 500 uM; one replicate
How it was run: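 Exposure to 500 uM ATP lasted 15 min at 22 °C before imaging, and a selection-buffer image was taken beforehand, for Cy3-labelled switching-strand clusters on a modified Illumina MiSeq flow-cell annealed to 100 nM quencher-labelled ATP aptamer. Five buffer/ATP cycles were run with NaOH stripping and re-annealing between them. The fluorescence ratio per cluster is summed target-cycle over summed buffer-cycle Cy3 intensity, averaged per switch-domain sequence. Clusters outside 100-1000 RFU were excluded.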

Row | Sequence | switch fluorescence ratio
1 | TATAAGGCGG | 1
2 | TATAAGGTGC | 1.4
3 | TATAATAGTG | 0.939
4 | TATAATGAAG | 1.01
5 | TATAATGGGT | 0.992
6 | TATAATGTCT | 0.976
7 | TATAATTAGC | 0.984
8 | TATACACCCG | 1.12
9 | TATACATATA | 1
10 | TATACATTAA | 1.03
11 | TATACCAATG | 0.991
12 | TATACCCGCG | 1.08
13 | TATACGAGGA | 1.07
14 | TATACGT | 1.04
15 | TATACGTGAG | 1
16 | TATACTGGAC | 1.24
17 | TATACTTAGC | 1.01
18 | TATAGACGG | 0.959
19 | TATAGAGTGT | 1.01
20 | TATAGATGAA | 1
21 | TATAGCGCG | 0.971
22 | TATAGCGGCA | 1.03
23 | TATAGCTTAT | 1.05
24 | TATAGGCTGT | 1
25 | TATAGTCAAT | 1.04
26 | TATAGTCCCG | 1.02

Row | Sequence | switch fluorescence ratio
27 | TATAGTCGA | 1.04
28 | TATAGTTTT | 0.998
29 | TATAGTTTTT | 0.988
30 | TATATAACAG | 0.987
31 | TATATAATTC | 1.03
32 | TATATCCCGC | 1.03
33 | TATATCCT | 1.15
34 | TATATCGTCC | 1.04
35 | TATATCTCC | 1.05
36 | TATATGAAAT | 0.942
37 | TATATGAGTC | 0.962
38 | TATATGCTAT | 1.01
39 | TATATTACAC | 1.03
40 | TATATTAGA | 0.985
41 | TATATTCGGA | 1.02
42 | TATATTGGAA | 1.01
43 | TATATTGGGT | 1.01
44 | TATCAAACAA | 0.988
45 | TATCAATCTG | 1.03
46 | TATCACGAG | 0.965
47 | TATCAGTCTA | 0.978
48 | TATCATCCC | 1.08
49 | TATCATCTCA | 1.05
50 | TATCATTCTG | 1.02
51 | TATCCAGAGT | 1
52 | TATCCCAGCA | 1.11

Row | Sequence | switch fluorescence ratio
53 | TATCCCCTAT | 1.02
54 | TATCCGCGGC | 1.23
55 | TATCCGTC | 0.951
56 | TATCCTGTA | 1.05
57 | TATCGAAATA | 1.06
58 | TATCGACGAT | 1.04
59 | TATCGATCTA | 0.986
60 | TATCGCAACG | 1.06
61 | TATCGCCCGG | 1.03
62 | TATCGGAAAA | 1
63 | TATCGGCGTT | 0.992
64 | TATCGGGT | 0.985
65 | TATCGGTTTC | 0.986
66 | TATCGTTTCG | 0.991
67 | TATCTAGATA | 0.98
68 | TATCTCTGCA | 1.68
69 | TATCTTAGGG | 1.02
70 | TATCTTGGGT | 1
71 | TATCTTTACA | 1.04
72 | TATCTTTAT | 0.995
73 | TATGAATATG | 1
74 | TATGACGGCA | 0.992
75 | TATGAGAGTA | 0.981
76 | TATGAGGACT | 1.01
77 | TATGAGGCTG | 0.977
78 | TATGAGTCTC | 0.984

Row | Sequence | switch fluorescence ratio
79 | TATGAGTTGT | 1.02
80 | TATGATCTTG | 1.05
81 | TATGCAGCGT | 0.968
82 | TATGCATCAA | 0.979
83 | TATGCGGGTA | 1.03
84 | TATGCGGTC | 0.951
85 | TATGCTAATA | 1.03
86 | TATGCTAGGC | 1.06
87 | TATGGATTCA | 0.961
88 | TATGGCAAA | 1
89 | TATGGCATAG | 1.01
90 | TATGGCGCTT | 1.01
91 | TATGGCTGG | 1.01
92 | TATGGGCCGA | 1.04
93 | TATGGGGCG | 1.03
94 | TATGGGTTCA | 0.984
95 | TATGGTGGAA | 1.01
96 | TATGGTTAAA | 1.04
97 | TATGGTTAGA | 1.02
98 | TATGTAAGA | 0.928
99 | TATGTCGTAT | 0.993
100 | TATGTCTTTC | 0.977
101 | TATGTGGATA | 0.983
